About 220 (0.56%) of roughly 39,000 compounds showed activity. The list shows a part of the results.
Test system: Escherichia coli K-12 BW25113
Assay: relative growth (OD600 normalised to plate interquartile mean) (fraction); higher = less growth inhibition, active = 0.2 or less
Settings: 50 µM; LB; incubation time: overnight (16-24 h)
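Further: static incubation at 37 °C against the wild-type strain, values averaged over two biological replicates.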

Row | SMILES | relative growth
1 | COCCOC(=O)N1C(=O)[C@@]2(c3cc(C#CCCO)ccc31)[C@H](C(=O)NC[C@H](O)c1ccccc1)[C@H]1C(=O)O[C@H](c3ccccc3)[C@H](c3ccccc3)N1[C@@H]2c1ccc(O)cc1 | inactive: 1.01
2 | C[C@@H](O)C[C@H]1CC[C@@H](O)[C@@H](C)C(=O)O[C@@H](C[C@@H](C)O)CC[C@@H](O)[C@@H](C)C(=O)O1 | inactive: 0.982
3 | COc1ccc(NC(=O)Nc2ccc3c(c2)CC(=O)N([C@@H](C)CO)C[C@H](C)[C@@H](CN(C)Cc2ccc(Oc4ccccc4)cc2)O3)cc1 | inactive: 1.07
4 | NC(CSSCC(N)C(=O)O)C(=O)O (stereo not given) | inactive: 1.02
5 | O=c1cc(C(F)(F)F)[nH]c(=O)[nH]1 | inactive: 0.996
6 | C[C@@H]1CN([C@@H](C)CO)C(=O)c2cc(NS(C)(=O)=O)ccc2O[C@H]1CN(C)Cc1ccc(C(=O)Nc2ccccc2N)cc1 | inactive: 1
7 | C[C@@H]1CCCCO[C@@H](CN(C)S(=O)(=O)c2ccc(Cl)cc2)[C@@H](C)CN([C@H](C)CO)C(=O)c2cc(NS(=O)(=O)c3cccs3)ccc2O1 | inactive: 1.03
8 | N[C@@H](C[C@@H](F)C(=O)O)C(=O)O | inactive: 1
9 | C[C@@H]1CN([C@H](C)CO)C(=O)c2cccc(NC(=O)CCCCCC(=O)Nc3ccccc3N)c2O[C@H]1CN(C)Cc1ccc(Cl)c(Cl)c1 | inactive: 1
10 | CCc1cccc2c3c([nH]c12)C(CC)(CC(=O)O)OCC3 (stereo not given) | inactive: 1.05
11 | C[C@H](CO)N1C[C@H](C)[C@H](CN(C)C(=O)Nc2ccccc2)OCCCC[C@H](C)Oc2ccc(NC(=O)c3ccncc3)cc2C1=O | inactive: 1.02
12 | Cc1noc(NS(=O)(=O)c2ccc(N)cc2)c1C | inactive: 0.894
13 | CC1CC2C3CC(F)C4=CC(=O)C=CC4(C)C3(F)C(O)CC2(C)C1(O)C(=O)CO (stereo not given) | inactive: 1.09
14 | N[C@]1(C(=O)O)C[C@H](C(=O)O)C1 | inactive: 1.05
15 | C[C@H](CO)N1C[C@H](C)[C@H](CN(C)C(=O)C2CCCCC2)Oc2cc(C#C[C@@H](C)O)ccc2S1(=O)=O | inactive: 0.93
16 | Cc1ccc(S(=O)(=O)N(C)C[C@@H]2OCCCC[C@@H](C)Oc3ccc(NC(=O)C4CCCCC4)cc3C(=O)N([C@H](C)CO)C[C@H]2C)cc1 | inactive: 1.01
17 | CCC[C@H](NC(=O)[C@@H]1[C@H]2CCC[C@H]2CN1C(=O)[C@@H](NC(=O)[C@@H](NC(=O)c1cnccn1)C1CCCCC1)C(C)(C)C)C(=O)C(=O)NC1CC1 | inactive: 1.16
18 | C[C@@H]1CN([C@H](C)CO)C(=O)c2cccc(NC(=O)CCCCCC(=O)Nc3ccccc3N)c2O[C@H]1CN(C)Cc1ccccc1 | inactive: 0.986
19 | NC[C@H]1O[C@H](O[C@@H]2[C@H](O)[C@@H](O[C@H]3O[C@H](CO)[C@@H](O)[C@H](N)[C@H]3O)[C@H](N)C[C@@H]2N)[C@H](O)[C@@H](O)[C@@H]1O | inactive: 0.983
20 | C[C@@H]1CN([C@@H](C)CO)C(=O)c2cccc(NC(=O)c3ccc(-c4nccs4)cc3)c2O[C@@H]1CN(C)CC1CCCCC1 | inactive: 0.982

Row | SMILES | relative growth
21 | OCC(O)C(O)C(OC1OC(CO)C(O)C(O)C1O)C(O)CO (stereo not given) | inactive: 0.915
22 | CC(C)NC(=O)[C@@H]1c2ccccc2C(=O)N(Cc2cc(F)cc(C(F)(F)F)c2)[C@H]1c1ccc(CO)cc1 | inactive: 0.867
23 | C[C@H]1CN([C@@H](C)CO)C(=O)c2cccc(NC(=O)Nc3ccc(F)cc3)c2O[C@@H]1CN(C)C(=O)Nc1ccc(C(F)(F)F)cc1 | inactive: 0.895
24 | Cc1noc(C)c1S(=O)(=O)N(C)C[C@@H]1Oc2c(NS(=O)(=O)c3cn(C)cn3)cccc2C(=O)N([C@@H](C)CO)C[C@@H]1C | inactive: 1.02
25 | Cn1cnc(CCNC(=O)C[C@@H]2CC[C@H]3[C@@H](COC[C@H](O)CN3C(=O)Nc3ccc(C(F)(F)F)cc3)O2)c1 | inactive: 0.963
26 | Cc1ccc(S(=O)(=O)N(C)C[C@H]2Oc3ccc(NS(=O)(=O)c4c(C)noc4C)cc3CC(=O)N([C@H](C)CO)C[C@@H]2C)cc1 | inactive: 0.976
27 | Nc1nc2c(s1)CNCC2 | inactive: 1.01
28 | COc1ccc(NC(=O)Nc2ccc3c(c2)C(=O)N([C@@H](C)CO)C[C@@H](C)[C@H](CN(C)S(=O)(=O)c2cccs2)OCCCC[C@H](C)O3)cc1 | inactive: 1.02
29 | CCS(=O)(=O)N1CC[C@]2(CC1)CN([C@@H](CO)c1c2c2ccc(cc2n1C)OC)C(=O)c1ccc(cc1)F | inactive: 0.994
30 | COc1ccc(NC(=O)Nc2ccc3c(c2)C(=O)N([C@H](C)CO)C[C@H](C)[C@@H](CN(C)C(=O)NC(C)C)OCCCC[C@@H](C)O3)cc1 | inactive: 1.02
31 | C[C@@H]1CN([C@@H](C)CO)S(=O)(=O)c2ccc(C#C[C@@H](C)O)cc2O[C@H]1CN(C)C(=O)Cc1ccccn1 | inactive: 1.01
32 | C[C@H](CO)N1C[C@H](C)[C@@H](CN(C)C(=O)CN2CCOCC2)Oc2cc(C#Cc3cccc(F)c3)ccc2S1(=O)=O | inactive: 1.02
33 | NCC[C@H]1CC[C@@H](NC(=O)Cc2ccncc2)[C@H](CO)O1 | inactive: 0.997
34 | C[C@H](CO)N1C[C@H](C)[C@H](CN(C)Cc2ccc(Oc3ccccc3)cc2)Oc2ccc(NC(=O)CCC(F)(F)F)cc2C1=O | inactive: 1
35 | CO[C@H]1CN(C)C(=O)c2ccc(NS(C)(=O)=O)cc2OC[C@@H](C)N(C(=O)CN(C)C)C[C@@H]1C | inactive: 0.999
36 | CO[C@@H](CN(C)C(=O)c1ccccc1F)[C@@H](C)CN([C@@H](C)CO)S(=O)(=O)c1ccc(Cl)cc1 | inactive: 1
37 | C[C@@H]1CCCCO[C@@H](CN(C)C(=O)Nc2ccc3c(c2)OCO3)[C@@H](C)CN([C@@H](C)CO)C(=O)c2cc(NC(=O)CCC(F)(F)F)ccc2O1 | inactive: 1.01
38 | C[C@H](N)[C@H](O)c1cccc(O)c1 | inactive: 0.99
39 | COCCCN1C(=O)[C@@]2(Cc3ccccc31)c1ccccc1C(=O)N(Cc1ccccc1C(F)(F)F)[C@H]2c1ccc(CO)cc1 | inactive: 0.986
40 | Cc1noc(C)c1NC(=O)N(C)C[C@H]1Oc2ccc(NC(=O)NC(C)C)cc2C(=O)N([C@H](C)CO)C[C@H]1C | inactive: 0.994

Row | SMILES | relative growth
41 | Cc1cc(C(=O)N2CCCC[C@@H]2CCOc2cccc(CN(C)Cc3cccc4cccnc34)c2)c(=O)[nH]c1C | inactive: 0.987
42 | C[C@H](CO)N1C[C@H](C)[C@H](CN(C)Cc2ccncc2)OCCCC[C@H](C)Oc2ccc(NS(C)(=O)=O)cc2C1=O | inactive: 1.01
43 | COc1ccc(NC(=O)N(C)C[C@@H]2Oc3ccc(NC(=O)CCCN(C)C)cc3C(=O)N([C@H](C)CO)C[C@@H]2C)cc1 | inactive: 0.999
44 | CN(C)Cc1cn(CC[C@@H]2CC[C@H](NS(=O)(=O)c3ccccc3)[C@@H](CO)O2)nn1 | inactive: 1.01
45 | C[C@@H]1CN([C@@H](C)CO)C(=O)c2cc(NC(=O)Nc3ccc(C(F)(F)F)cc3)ccc2O[C@@H](C)CCCCO[C@H]1CN(C)S(=O)(=O)c1cccs1 | inactive: 1
46 | C[C@@H]1CN([C@@H](C)CO)C(=O)c2cccc(NS(=O)(=O)c3ccccc3)c2O[C@H]1CN(C)CC1CC1 | inactive: 0.98
47 | C[C@H]1CCCCO[C@@H](CN(C)Cc2ccc(C(=O)O)cc2)[C@@H](C)CN([C@@H](C)CO)C(=O)c2cc(NC(=O)CCC(F)(F)F)ccc2O1 | inactive: 0.962
48 | COc1ccc(CN(C)C[C@H]2OCCCC[C@@H](C)Oc3ccc(NC(=O)CCC(F)(F)F)cc3C(=O)N([C@H](C)CO)C[C@H]2C)cc1 | inactive: 0.953
49 | COc1ccc(CN(C)C[C@@H]2Oc3c(NS(C)(=O)=O)cccc3C(=O)N([C@@H](C)CO)C[C@@H]2C)cc1 | inactive: 0.999
50 | C[C@H](CO)N1C[C@H](C)[C@H](CN(C)S(=O)(=O)c2cn(C)cn2)Oc2ncc(C#CCN(C)C)cc2C1=O | inactive: 0.984
51 | C[C@H]1CN([C@@H](C)CO)C(=O)Cc2cc(NC(=O)CCCCCC(=O)Nc3ccccc3N)ccc2O[C@H]1CN(C)C(=O)Nc1ccccc1 | inactive: 0.974
52 | C[C@@H]1CCCCO[C@H](CN(C)S(=O)(=O)c2cccs2)[C@H](C)CN([C@@H](C)CO)C(=O)c2cc(NS(=O)(=O)c3ccc(Cl)cc3)ccc2O1 | inactive: 1.05
53 | COc1cc(OC)c(CN(CC#CCOC(=O)NCCCCCC(=O)NO)S(=O)(=O)c2ccccc2[N+](=O)[O-])c(OC)c1 | inactive: 1
54 | Cc1noc(C)c1NC(=O)Nc1ccc2c(c1)CC(=O)N([C@@H](C)CO)C[C@H](C)[C@@H](CN(C)S(=O)(=O)c1cccs1)O2 | inactive: 0.984
55 | O=C(NCC[C@@H]1CC[C@H](NS(=O)(=O)c2cccc(F)c2)[C@H](CO)O1)C1CC1 | inactive: 0.996
56 | CN1C(=O)c2cc(NC(=O)c3cccs3)ccc2OC[C@H]2O[C@H](CC(=O)NCC(F)(F)F)CC[C@@H]21 | inactive: 1.01
57 | Cc1ccc(S(=O)(=O)Nc2ccc3c(c2)C(=O)N([C@H](C)CO)C[C@H](C)[C@H](CN(C)Cc2ccc(C(=O)O)cc2)OCCCC[C@H](C)O3)cc1 | inactive: 0.993
58 | C[C@@H]1CCCCO[C@@H](CN(C)C(=O)Nc2ccccc2)[C@H](C)CN([C@H](C)CO)C(=O)c2cc(NC(=O)Nc3ccc(C(F)(F)F)cc3)ccc2O1 | inactive: 1
59 | CN1C(=O)c2cc(NS(=O)(=O)c3ccc(F)cc3)ccc2OC[C@H]2O[C@H](CC(=O)NCC(F)(F)F)CC[C@H]21 | inactive: 1.01
60 | Cc1noc(C)c1S(=O)(=O)Nc1ccc2c(c1)C(=O)N([C@H](C)CO)C[C@@H](C)[C@@H](CN(C)C(=O)Nc1ccc(C(F)(F)F)cc1)OCCCC[C@@H](C)O2 | inactive: 1.01

— the supplement of paper PMC9446081
